# Laboratory results as given in the supplement of paper PMC8728848.
# Some of the results follow.
# B1: DrGal9 (Danio rerio) (protein)
# chain: MAFYQQPPYYNPRIPFSGPIQGGLQDGKSIIISGRVLPGANRFHVNLQCGSHSEANVALHFNPRYEDTDYVVNNSYLNRTWGSEERKYESPFAQGQTFTLQILVAQDKYKISTNGRHFMDYKHRIPFTQVDTVAVEGMVEVNSVAFQNPAGFIPPQAGYAPQYAVPPGCGFPAFPSAPNYTIPHKTVMNGGLHPGKNIVINGVVNPNAKSIIFNLCYRSGIAFHYNPRFDENVVVRNTNQMEKWGAEERFGGLPFHKGQPFQVTISCNPQHYNVFVNGKQEHTYKHRYTKLNDIDILEICGDLQLTSVQA
# Assays:
# Test in all cases: glycan array binding signal (z-score within array); higher = stronger binding
# Conditions in all cases: glycan notation: IUPAC condensed, linker removed
# [1] = target: Neu5Ac(a2-3)Gal(b1-4)GlcNAc(b1-3)Gal(b1-3)GlcNAc
# How it was run: (§1)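 Glycan array data were curated from 3228 arrays in the Consortium for Functional Glycomics database and kept only where the protein sequence was available. Glycan names were converted to IUPAC-condensed notation, and columns mapping to the same glycan were averaged. The binding signal is a within-array Z-score, averaged across arrays of the same protein sequence at different concentrations or buffers and across linkers. Negative Z-scores can be read as non-binding.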
# [2] = target: Neu5Ac(a2-3)Gal(b1-4)GlcNAc(b1-3)Gal(b1-4)GlcNAc
# How it was run: as §1
# [3] = target: Neu5Ac(a2-3)Gal(b1-4)GlcNAc(b1-3)Gal(b1-4)GlcNAc(b1-2)Man(a1-3)[Neu5Ac(a2-3)Gal(b1-4)GlcNAc(b1-3)Gal(b1-4)GlcNAc(b1-2)Man(a1-6)]Man(b1-4)GlcNAc(b1-4)GlcNAc
# How it was run: as §1
# [4] = target: Neu5Ac(a2-3)Gal(b1-4)GlcNAc(b1-3)Gal(b1-4)GlcNAc(b1-3)Gal(b1-4)GlcNAc
# How it was run: as §1
# [5] = target: Neu5Ac(a2-3)Gal(b1-4)GlcNAc(b1-3)Gal(b1-4)GlcNAc(b1-3)Gal(b1-4)GlcNAc(b1-2)Man(a1-3)[Neu5Ac(a2-3)Gal(b1-4)GlcNAc(b1-3)Gal(b1-4)GlcNAc(b1-3)Gal(b1-4)GlcNAc(b1-2)Man(a1-6)]GalNAc
# How it was run: as §1
# [6] = target: Neu5Ac(a2-3)Gal(b1-4)GlcNAc(b1-3)Gal(b1-4)GlcNAc(b1-3)GalNAc
# How it was run: as §1
# [7] = target: Neu5Ac(a2-3)Gal(b1-4)GlcNAc(b1-3)Gal(b1-4)GlcNAc(b1-3)[Neu5Ac(a2-3)Gal(b1-4)GlcNAc(b1-3)Gal(b1-4)GlcNAc(b1-6)]GalNAc
# How it was run: as §1
# [8] = target: Neu5Ac(a2-3)Gal(b1-4)GlcNAc(b1-3)Gal(b1-4)GlcNAc(b1-6)[Gal(b1-3)]GalNAc
# How it was run: as §1
# [9] = target: Neu5Ac(a2-3)Gal(b1-4)GlcNAc(b1-3)Gal(b1-4)[Fuc(a1-3)]GlcNAc
# How it was run: as §1
# [10] = target: Neu5Ac(a2-3)Gal(b1-4)GlcNAc(b1-3)GalNAc
# How it was run: as §1
# [11] = target: Neu5Ac(a2-3)Gal(b1-4)GlcNAc(b1-3)[Neu5Ac(a2-3)Gal(b1-4)GlcNAc(b1-6)]GalNAc
# How it was run: as §1
# [12] = target: Neu5Ac(a2-3)Gal(b1-4)GlcNAc(b1-6)GalNAc
# How it was run: as §1
# [13] = target: Neu5Ac(a2-3)Gal(b1-4)GlcNAc(b1-6)[Gal(b1-3)]GalNAc
# How it was run: as §1
# [14] = target: Neu5Ac(a2-3)Gal(b1-4)GlcNAc(b1-6)[Neu5Ac(a2-3)Gal(b1-3)]GalNAc
# How it was run: as §1
# [15] = target: Neu5Ac(a2-3)Gal(b1-4)GlcNAc6S
# How it was run: as §1
# [16] = target: Neu5Ac(a2-3)Gal(b1-4)[Fuc(a1-3)]GlcNAc
# How it was run: as §1
# [17] = target: Neu5Ac(a2-3)Gal(b1-4)[Fuc(a1-3)]GlcNAc(b1-2)Man
# How it was run: as §1
# [18] = target: Neu5Ac(a2-3)Gal(b1-4)[Fuc(a1-3)]GlcNAc(b1-3)Gal
# How it was run: as §1
# [19] = target: Neu5Ac(a2-3)Gal(b1-4)[Fuc(a1-3)]GlcNAc(b1-3)Gal(b1-4)GlcNAc
# How it was run: as §1
# [20] = target: Neu5Ac(a2-3)Gal(b1-4)[Fuc(a1-3)]GlcNAc(b1-3)Gal(b1-4)[Fuc(a1-3)]GlcNAc(b1-3)Gal(b1-4)[Fuc(a1-3)]GlcNAc
# How it was run: as §1
# [21] = target: Neu5Ac(a2-3)Gal(b1-4)[Fuc(a1-3)]GlcNAc(b1-3)GalNAc
# How it was run: as §1
# [22] = target: Neu5Ac(a2-3)Gal(b1-4)[Fuc(a1-3)]GlcNAc(b1-6)[Gal(b1-3)]GalNAc
# How it was run: as §1
# [23] = target: Neu5Ac(a2-3)Gal(b1-4)[Fuc(a1-3)]GlcNAc(b1-6)[Neu5Ac(a2-3)Gal(b1-3)]GalNAc
# How it was run: as §1
# [24] = target: Neu5Ac(a2-3)Gal(b1-4)[Fuc(a1-3)]GlcNAc6S
# How it was run: as §1
# [25] = target: Neu5Ac(a2-3)Gal6S(b1-4)GlcNAc
# How it was run: as §1
# [26] = target: Neu5Ac(a2-3)Gal6S(b1-4)[Fuc(a1-3)]GlcNAc
# How it was run: as §1
# [27] = target: Neu5Ac(a2-3)GalNAc
# How it was run: as §1
# [28] = target: Neu5Ac(a2-3)GalNAc(b1-4)GlcNAc
# How it was run: as §1
# [29] = target: Neu5Ac(a2-3)[GalNAc(b1-4)]Gal(b1-4)Glc
# How it was run: as §1
# [30] = target: Neu5Ac(a2-3)[GalNAc(b1-4)]Gal(b1-4)GlcNAc
# How it was run: as §1
# [31] = target: Neu5Ac(a2-3)[GalNAc(b1-4)]Gal(b1-4)GlcNAc(b1-3)GalNAc
# How it was run: as §1
# [32] = target: Neu5Ac(a2-3)[Neu5Ac(a2-6)]GalNAc
# How it was run: as §1
# [33] = target: Neu5Ac(a2-6)Gal
# How it was run: as §1
# [34] = target: Neu5Ac(a2-6)Gal(b1-3)GlcNAc(b1-3)[Gal(b1-4)GlcNAc(b1-6)]Gal(b1-4)Glc
# How it was run: as §1
# [35] = target: Neu5Ac(a2-6)Gal(b1-4)Glc
# How it was run: as §1
# [36] = target: Neu5Ac(a2-6)Gal(b1-4)GlcNAc
# How it was run: as §1
# [37] = target: Neu5Ac(a2-6)Gal(b1-4)GlcNAc(b1-2)Man
# How it was run: as §1
# [38] = target: Neu5Ac(a2-6)Gal(b1-4)GlcNAc(b1-2)Man(a1-3)Man(b1-4)GlcNAc(b1-4)GlcNAc
# How it was run: as §1
binder,measurement,setting,value
B1,glycan array binding signal (z-score),[1],-0.042
same,glycan array binding signal (z-score),[2],0.406
same,glycan array binding signal (z-score),[3],0.057
same,glycan array binding signal (z-score),[4],0.284
same,glycan array binding signal (z-score),[5],-0.067
same,glycan array binding signal (z-score),[6],-0.025
same,glycan array binding signal (z-score),[7],1.04
same,glycan array binding signal (z-score),[8],0.662
same,glycan array binding signal (z-score),[9],-0.371
same,glycan array binding signal (z-score),[10],-0.302
same,glycan array binding signal (z-score),[11],0.008
same,glycan array binding signal (z-score),[12],-0.352
same,glycan array binding signal (z-score),[13],-0.135
same,glycan array binding signal (z-score),[14],-0.386
same,glycan array binding signal (z-score),[15],0.142
same,glycan array binding signal (z-score),[16],-0.413
same,glycan array binding signal (z-score),[17],-0.414
same,glycan array binding signal (z-score),[18],-0.411
same,glycan array binding signal (z-score),[19],-0.356
same,glycan array binding signal (z-score),[20],-0.384
same,glycan array binding signal (z-score),[21],-0.288
same,glycan array binding signal (z-score),[22],-0.38
same,glycan array binding signal (z-score),[23],-0.39
same,glycan array binding signal (z-score),[24],-0.387
same,glycan array binding signal (z-score),[25],-0.389
same,glycan array binding signal (z-score),[26],-0.413
same,glycan array binding signal (z-score),[27],-0.376
same,glycan array binding signal (z-score),[28],-0.365
same,glycan array binding signal (z-score),[29],-0.402
same,glycan array binding signal (z-score),[30],-0.395
same,glycan array binding signal (z-score),[31],-0.374
same,glycan array binding signal (z-score),[32],-0.395
same,glycan array binding signal (z-score),[33],-0.381
same,glycan array binding signal (z-score),[34],-0.364
same,glycan array binding signal (z-score),[35],-0.297
same,glycan array binding signal (z-score),[36],-0.374
same,glycan array binding signal (z-score),[37],-0.383
same,glycan array binding signal (z-score),[38],-0.395
